In PubChem BioAssay AID1345083 (National Center for Advancing Translational Sciences (NCATS), 2018):
Several values for one entry are separate records, joined by “and”; a condition that tells them apart may be missing. Identical values can stand only once. Screen size: about 94,000 compounds; about 6,200 (6.6%) were called active. Inconclusive means that the source gave no clear call. Such entries were picked first, then a sample of the others. The call rests on the fitted dose curve; in most records, active means well fitted inhibition curve with a large enough effect; inconclusive means small, poorly fitted or top-dose-only effect; inactive means flat fitted curve, though single readings scatter. Potencies of inconclusive entries are doubtful fits and often do not repeat.

experiment: Cytotoxic Profiling in HEK 293 Cell Line of Diverse Libraries Using Quantitative High-Throughput Screening; conditions: HEK 293 viability, ATP luminescence (CellTiter-Glo), 48-72 h; activity change, negative = cytotoxicity: at 115 µM (top of the series) unless noted; series mostly up to 115 µM; further: nearly all actives have a fitted effect of over 60% in size
In short: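 Luminescence from cellular ATP, measured with CellTiter-Glo, indicates HEK 293 viability. Cells plated at 250 cells/well are treated with compound for 48 or 72 hr at 37 degree Celsius before reagent addition.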
On the % scale 0 is the no-effect control and ±100 the full control effect; potency means the concentration at half of the fitted maximal effect; tags describe the fitted curve by direction and shape.

| Compound | Potency | activity change, negative = cytotoxicity | outcome |
| --- | --- | --- | --- |
| CC(C)(C)CC(=O)Nc1ccc([C@@H](O)[C@H]2COCC(=O)N2Cc2ccc(F)cc2)cc1 | inconclusive: 100 µM [inhibitor, partial curve, poor fit] |  |  |
| Cc1ccc(S(=O)(=O)N2CCC3(CC2)SCC(=O)N3Cc2ccco2)cc1 | inconclusive: 50.1 µM [inhibitor, partial curve, poor fit] |  |  |
| Cc1ccc(-c2cc(N3CCCN(C(=O)Cc4ccsc4)CC3)n[nH]2)cc1C | inconclusive: 50.1 µM [inhibitor, partial curve, poor fit] |  |  |
| CCOC(=O)C1CCCN(C(=O)c2cn3cc(-c4cccc(C(F)(F)F)c4)sc3n2)C1 (stereo unspecified) |  | inactive: -15.7% |  |
| Cc1cc(CN2CC[C@@H]3CN(S(C)(=O)=O)[C@@H]3C2)n(C)n1 |  |  | inactive |
| O=C(NCc1cccnc1)c1nc(-c2ccc(Cl)cc2Cl)c2ccccn12 | inconclusive: 31.6 µM [inhibitor, full curve] |  |  |
| CN(C)C(=O)c1cn2cc(-c3ccc(F)cc3)sc2n1 |  | inactive: -23.5% [at 172 µM] |  |
| CCc1nc2c(c(-c3ccc(Cl)cc3)n1)CCN(Cc1ccsc1)CC2 | inconclusive: 31.6 µM [inhibitor, partial curve, poor fit] |  |  |
| COCCOc1ccc2c(n1)CCN(C(=O)c1ccc(C(C)C)cc1)C2 | inconclusive: 79.4 µM [inhibitor, single point] |  |  |
| CCOC(=O)C1=CN(CC(=O)Nc2c(C)cc(C)cc2C)S(=O)(=O)N=C1C | inconclusive: 31.6 µM [inhibitor, full curve] |  |  |
| Cc1cccc(OCCc2noc(C3CCN(C(=O)NC4CCCCC4)C3)n2)c1 (stereo unspecified) | inconclusive: 100 µM [inhibitor, single point] |  |  |
| O=C(c1cccc(F)c1)N1CCN2C(=O)N(C3CCCCC3)C(=O)[C@@H]2C1 |  | inactive: -13.3% [at 172 µM] |  |
| Cc1nnn2c(C(=O)N(C)C)cccc12 |  | inactive: 3.58% [at 230 µM] |  |
| C#CCNC(=O)c1cc(-c2cccc(OC)c2)nc2c1cnn2C | inconclusive: 50.1 µM [inhibitor, full curve] |  |  |
| NS(=O)(=O)c1ccc(CNC(=O)Cn2nc3c(cc2=O)CCCC3)cc1 |  | inactive: 14.6% |  |
| CCNC(=O)N1CCC(OC2CCN(Cc3ccccc3)CC2)CC1 |  | inactive: -6.51% |  |
| CC(=O)Oc1c(-c2ccc(NC(=O)c3ccco3)cc2)c(-c2cccc(F)c2)nn1-c1ccc(C)cc1 | inconclusive: 79.4 µM [inhibitor, partial curve, poor fit] |  |  |
| O=C1[C@@H]2C[C@@H](CN2Cc2cnc3ccccc3c2)Oc2ccccc2N1CC1CC1 | active: 50.1 µM |  |  |
| COc1ccc(CN2Cc3[nH]nc(-c4ccc(N5CCN(C)CC5)cc4)c3CC2=O)cc1 | active: 44.7 µM |  |  |
| Oc1ccc(-c2nc(C3CC3)nc3c2CCN(Cc2cccc4ccccc24)CC3)cc1 | active: 17.8 µM |  |  |
| CC(C)CCCC1CN(S(=O)(=O)c2ccsc2)CCO1 (stereo unspecified) | inconclusive: 89.1 µM [inhibitor, partial curve, poor fit] |  |  |
| O=C(N[C@@H]1CN(C(=O)Nc2ccccc2)CCC[C@H]1O)c1ccc(OCc2ccccc2)cc1 | inconclusive: 50.1 µM [inhibitor, partial curve, poor fit] |  |  |

| Compound | Potency | activity change, negative = cytotoxicity | outcome |
| --- | --- | --- | --- |
| Cc1ccc(-c2noc([C@@H]3C[C@@H](O)CN3C3CCN(C)CC3)n2)cc1F | inconclusive: 126 µM [inhibitor, single point] |  |  |
| Cc1ccccc1C(=O)N1CCC[C@@H]1C(=O)N1CCCC(c2nc3ccncc3[nH]2)C1 (stereo partly specified) |  |  | inactive |
| CNC(=O)[C@@H]1C[C@H](n2cc(C(C)(C)NC(=O)c3cc(F)ccc3C)nn2)CN1 |  | inactive: -2.4% |  |
| CCN(CC)CCNC(=O)c1c(-c2ccccc2)cc(=O)n2c1CCC2 |  | inactive: -6.59% |  |
| Cc1ccc(S(=O)(=O)N2CCCC(CCC(=O)NCc3cccc(F)c3)C2)cc1 (stereo unspecified) | inconclusive: 89.1 µM [inhibitor, single point] |  |  |
| COc1ccc(-c2cc(N3CCCC(NC(=O)c4ccc(C)cc4C)C3)n[nH]2)cc1 (stereo unspecified) | inconclusive: 50.1 µM [inhibitor, partial curve, poor fit] |  |  |
| O=C(c1ccc2c(c1)OCO2)N1CC(Oc2ccc(F)cc2F)C1 | inconclusive: 89.1 µM [inhibitor, partial curve, poor fit] |  |  |
| O=C(c1ccc(F)cc1)N1CCCC(c2nn(-c3ccc(F)cc3)c(=O)[nH]2)C1 (stereo unspecified) | inconclusive: 79.4 µM [inhibitor, partial curve] |  |  |
| COC(C)c1nc(C2CCOCC2)nn1Cc1ccc2c(c1)OCO2 (stereo unspecified) |  | inactive: -6.01% |  |
| CC1(C)[C@H]2CC[C@@H](CNC(=O)N3CCCC3)[C@@H]1C2 | active: 63.1 µM |  |  |
| CC(C)n1c(CN2CCC3(CCCN(C)C3=O)C2)nc2ccccc21 (stereo unspecified) |  | inactive: -22.8% |  |
| O=C1CCC2(CCN1Cc1ccccc1)CCN(S(=O)(=O)c1cccs1)CC2 | inconclusive: 50.1 µM [inhibitor, partial curve, poor fit] |  |  |
| COc1ccc(CN2C[C@@H]3C(=O)N(Cc4ccc5c(c4)OCO5)C(=O)[C@@H]3C2)c(OC)c1 | inconclusive: 50.1 µM [inhibitor, partial curve, poor fit] |  |  |
| COc1ccc(CNC(=O)[C@@H]2Cc3nc[nH]c3CN2Cc2cc3ccccc3o2)cc1 | inconclusive: 126 µM [inhibitor, single point] |  |  |
| COc1ccc(CC(=O)N2c3ccccc3CC2c2nc(C(C)C)no2)cc1OC (stereo unspecified) | inconclusive: 28.2 µM [inhibitor, partial curve, poor fit] |  |  |
| COCCNC(=O)[C@H]1C[C@H](Oc2cccnc2)CN1C(=O)Cc1c(C)noc1C |  |  | inactive |
| CCCCn1c(CNC(=O)OC(C)(C)C)nc2cccnc21 | inconclusive: 112 µM [inhibitor, partial curve, poor fit] |  |  |
| O=C(Nc1cccc(F)c1)c1cnc2c(c1)N([S+](=O)([O-])c1cccnc1)CCC2 | inconclusive: 126 µM [inhibitor, single point] |  |  |
| Cc1cccc(OCC(=O)N2CCC(n3cc(-c4nc(-c5ccccc5)no4)nn3)C2)c1 (stereo unspecified) | active: 10 µM |  |  |
| COC(=O)c1ccc2nc(CO[C@H]3CN(C4CCC4)C[C@H]3F)[nH]c2c1 |  | inactive: -14.3% [at 172 µM] |  |
| COCc1nc(C2CCN(C(=O)c3ccco3)C2)no1 (stereo unspecified) |  | inactive: -5.68% |  |
| CCCN1CCC2(CCN(C(=O)c3ccc(C)cc3)CC2)Oc2ccccc21 | inconclusive: 56.2 µM [inhibitor, partial curve, poor fit] |  |  |

| Compound | Potency | activity change, negative = cytotoxicity | outcome |
| --- | --- | --- | --- |
| Cc1noc(C)c1[S+](=O)([O-])N1CCn2c(nn(-c3ccc(C(F)(F)F)cc3)c2=O)C1 | inconclusive: 79.4 µM [inhibitor, partial curve, poor fit] and inconclusive: 22.4 µM [inhibitor, full curve, poor fit] |  |  |
| COc1cc(F)ccc1-c1cn(C)c(=O)n2cc(CN3CCOCC3)nc12 |  | inactive: -8.21% [at 172 µM] |  |
| O=C(Nc1ccc(C2(C(=O)NCc3cccc(Cl)c3)CCC2)cc1)C1CC1 | inconclusive: 44.7 µM [inhibitor, partial curve, poor fit] |  |  |
| CC(C)CC(=O)NC[C@@H]1C[C@H](F)CN1C(=O)c1cn(CCN)nn1 |  | inactive: 0.289% |  |
| COc1ccc(-c2nc3c(c(=O)[nH]2)CCN(C(=O)c2ccccc2)C3)cc1 |  | inactive: -25.9% |  |
| COc1cccc(N2CC(C(=O)N3CCC(C(=O)NCc4cccc(F)c4)C3)NC2=O)c1 (stereo unspecified) |  | inactive: -21.3% |  |
| Cc1cccc(N2Cc3c(ncnc3N3CCN(C)CC3)N(C)CC2=O)c1 |  | inactive: 4.01% |  |
| Cc1cc2c(c(=O)n(-c3ccccc3)c(=O)n2CC(=O)Nc2cccc(C#N)c2)n1C |  | inactive: -4.2% |  |
| O=C(NC1C[C@H]2CC[C@@H](C1)N2C(=O)C1CCCCCC1)c1ccc(F)cc1 (stereo partly specified) |  | inactive: -7.28% |  |
| COc1ccc(-c2noc(CC3CCN(C(=O)Cc4ccccc4)CC3)n2)cc1 | inconclusive: 50.1 µM [inhibitor, partial curve, poor fit] |  |  |
| CC#CCn1cc2c3c(cccc31)[C@H](CC(C)C)N[C@H](C(=O)NCCOC)C2 | inconclusive: 63.1 µM [inhibitor, full curve, poor fit] |  |  |
| C[C@@H]1CCC[C@H](C)N1CC(=O)N1CCn2nc(Cc3ccccc3)cc2C1 |  | inactive: -27.3% |  |
| Cc1ccc(-c2ccc3nnc(CNC(=O)c4ccc[nH]4)n3n2)cc1C | inconclusive: 89.1 µM [inhibitor, single point] |  |  |
| Cn1nc(C(=O)N2CCC3(CC2)CC(Cc2nc(C4CC4)no2)CCO3)c2ccccc21 (stereo unspecified) | inconclusive: 50.1 µM [inhibitor, partial curve, poor fit] |  |  |
| Cc1nn(-c2ccccc2)c2c1C(C(C)C)N(C1CCN(C(=O)Nc3ccccc3)C1)C2=O (stereo unspecified) |  | inactive: -11.8% |  |
| O=C(NC1CCN(c2nc3ncccc3o2)CC1)c1ccc(Cl)nc1 | inconclusive: 56.2 µM [inhibitor, partial curve, poor fit] |  |  |
| CCc1nc(-c2c3n(c(=O)n(CC(=O)Nc4ccc(C)c(C)c4)c2=O)CCCC3)no1 |  | inactive: 0.76% |  |
| O=C(NCc1cccc(C(F)(F)F)c1)C1CCc2nnc(C3CCN([S+](=O)([O-])c4ccccc4Cl)CC3)n21 (stereo unspecified) | inconclusive: 89.1 µM [inhibitor, single point] |  |  |
| C[C@]1(CO)C2CC[C@@H](O)[C@@H](CC(=O)N3CCOCC3)[C@]2(C)CC[C@H]1OC(=O)Nc1ccccc1 (stereo partly specified) |  | inactive: -3.98% |  |
| Cc1noc(CC2CCN(C(=O)C(C)Oc3ccc4ccccc4c3)CC2)n1 (stereo unspecified) | inconclusive: 44.7 µM [inhibitor, partial curve] |  |  |
| COc1ccc(CC(=O)Nc2ccc3ncnc(N4CCCCC4)c3c2)c(Cl)c1 | inconclusive: 50.1 µM [inhibitor, partial curve, poor fit] |  |  |
| O=C1Cc2c(-c3cccc(CO)c3)n[nH]c2CN1Cc1ccccc1F | inconclusive: 112 µM [inhibitor, single point] |  |  |
